Data as given in the supplement of paper PMC10441789.
This is one part of the list. Antibody binding of pooled human sera (four to six donors per pool; dilution not stated) to peptides of the Trypanosoma cruzi antigen TSSA on microarrays. Quantile-normalised fluorescence in arbitrary units, mean of duplicate arrays; higher = more binding. No active / inactive call. The uninfected pools are read here as the healthy donors of the same country. The strongest signals lie near the top of the scale (about 60,000).

Tests used:
Test in all cases: antibody binding signal (normalised fluorescence) (arbitrary fluorescence units); higher = stronger serum antibody binding to peptide
[1] = system: pooled sera of chronic Chagas disease patients, Argentina
Protocol: (§1)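 Microarray of overlapping 15-residue peptides of the four Trypanosoma cruzi TSSA reference variants and 8- to 13-residue peptides of TSSAII 24-62, probed with one serum pool per country.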

[2] = system: pooled sera of chronic Chagas disease patients, Bolivia
Protocol: as §1

[3] = system: pooled sera of chronic Chagas disease patients, Brazil
Protocol: as §1

[4] = system: pooled sera of chronic Chagas disease patients, Colombia
Protocol: as §1

[5] = system: pooled sera of chronic Chagas disease patients, Mexico
Protocol: as §1

[6] = system: pooled sera of chronic Chagas disease patients, USA
Protocol: as §1

[7] = system: pooled sera of uninfected people, Argentina
Protocol: as §1

[8] = system: pooled sera of uninfected people, Bolivia
Protocol: as §1

[9] = system: pooled sera of uninfected people, Colombia
Protocol: as §1

[10] = system: pooled sera of uninfected people, Mexico
Protocol: as §1

[11] = system: pooled sera of uninfected people, USA
Protocol: as §1

Sequence | antibody binding signal [1] | antibody binding signal [2] | antibody binding signal [3] | antibody binding signal [4] | antibody binding signal [5] | antibody binding signal [6] | antibody binding signal [7] | antibody binding signal [8] | antibody binding signal [9] | antibody binding signal [10] | antibody binding signal [11]
STPPSGTEN | 41300 | 37100 | 28100 | 108 | 182 | 238 | 327 | 162 | 103 | 97.1 | 162
TSSTPPSGTE | 13100 | 652 | 10400 | 151 | 157 | 83.2 | 135 | 77.5 | 82.4 | 106 | 60.5
SSTPPSGTENKPATG | 49100 | 54100 | 53700 | 1690 | 5810 | 45800 | 9430 | 2250 | 866 | 661 | 981
APSQPGAS | 857 | 610 | 1420 | 513 | 9310 | 359 | 642 | 1640 | 1140 | 3550 | 1840
PSPSGASSGEAEASS | 124 | 123 | 2720 | 146 | 329 | 112 | 204 | 122 | 77.4 | 92.9 | 159
NKPATGEAPSQP | 52100 | 51200 | 58200 | 389 | 272 | 43400 | 959 | 647 | 161 | 262 | 171
PGASSGEAEASSNKN | 277 | 2420 | 7400 | 352 | 1040 | 1150 | 194 | 661 | 153 | 1260 | 796
SGTENKPA | 52100 | 32500 | 42500 | 323 | 1050 | 9270 | 2090 | 1720 | 196 | 639 | 688
TAAGEAPSPSGASSG | 401 | 272 | 920 | 105 | 813 | 214 | 147 | 102 | 107 | 87.5 | 432
ANGGSTSSTPPS | 1170 | 3220 | 1050 | 4350 | 1190 | 2600 | 271 | 490 | 147 | 431 | 342
QPGASSGEAE | 419 | 113 | 9480 | 117 | 109 | 138 | 192 | 93.5 | 194 | 94.3 | 82.7
SSTPPSGT | 285 | 179 | 407 | 118 | 198 | 126 | 96.3 | 110 | 103 | 148 | 133
GEAPSPSGASSGEAE | 139 | 134 | 5370 | 105 | 1280 | 165 | 329 | 129 | 188 | 96.9 | 152
CTTANGGSTSSTPPS | 428 | 561 | 1550 | 221 | 268 | 286 | 250 | 275 | 667 | 203 | 144
PPSGTEKKAAAGEAP | 23700 | 11700 | 17700 | 811 | 1930 | 9460 | 997 | 429 | 250 | 169 | 232
SQPGASSGEAE | 261 | 119 | 8210 | 161 | 124 | 112 | 148 | 127 | 208 | 133 | 102
SQPGASSGEA | 249 | 144 | 7610 | 136 | 174 | 92.7 | 136 | 97.7 | 112 | 196 | 137
ACTTANGGSTSSTPP | 327 | 300 | 704 | 232 | 312 | 187 | 193 | 239 | 308 | 214 | 485
GTDKKTAAGEAPSPS | 201 | 255 | 576 | 1300 | 484 | 7610 | 160 | 252 | 1070 | 149 | 104
GGSTSSTP | 501 | 168 | 370 | 291 | 215 | 343 | 194 | 181 | 111 | 116 | 101
ANGGSTSSTP | 1400 | 2110 | 1020 | 1260 | 1160 | 2210 | 230 | 369 | 159 | 350 | 328
TPPSGTENKPAT | 46700 | 51500 | 51100 | 1860 | 5110 | 30900 | 8550 | 1380 | 846 | 698 | 861
NGGSTSST | 238 | 199 | 272 | 156 | 182 | 152 | 85.1 | 167 | 104 | 110 | 94.5
ATGEAPSQPGASS | 23200 | 45000 | 35800 | 1260 | 1260 | 11300 | 306 | 319 | 132 | 275 | 158
ENKPATGEA | 34700 | 28800 | 31800 | 193 | 633 | 18900 | 229 | 712 | 102 | 428 | 360
AAAGEAPSPSGASSG | 453 | 355 | 1250 | 1470 | 1390 | 211 | 153 | 139 | 148 | 166 | 389
QPGASSGE | 1370 | 135 | 9110 | 86 | 121 | 103 | 78.4 | 97 | 93.8 | 250 | 105
GEAPSQPGASSG | 12500 | 39700 | 9920 | 112 | 107 | 1400 | 167 | 113 | 112 | 168 | 198

Sequence | antibody binding signal [1] | antibody binding signal [2] | antibody binding signal [3] | antibody binding signal [4] | antibody binding signal [5] | antibody binding signal [6] | antibody binding signal [7] | antibody binding signal [8] | antibody binding signal [9] | antibody binding signal [10] | antibody binding signal [11]
ATGEAPSQP | 19000 | 31900 | 37800 | 176 | 367 | 14500 | 188 | 158 | 70.9 | 125 | 75.2
PPGTDKKTAAGGTPS | 11200 | 735 | 1530 | 30100 | 25600 | 11900 | 246 | 159 | 361 | 939 | 418
NGGSTSSTP | 551 | 285 | 463 | 421 | 169 | 299 | 239 | 198 | 138 | 145 | 93.1
EAPSPSGASSGEAEA | 124 | 141 | 4480 | 125 | 795 | 123 | 277 | 129 | 114 | 75.5 | 140
GASSGEAEASS | 92.2 | 108 | 701 | 146 | 151 | 77.9 | 137 | 159 | 89.8 | 92.2 | 71.7
PSGTENKPATGEA | 43300 | 41100 | 46600 | 1070 | 2960 | 24700 | 2150 | 1270 | 342 | 526 | 980
GASSGEAEASSNKND | 213 | 1420 | 3060 | 553 | 1170 | 937 | 221 | 315 | 176 | 1700 | 871
TANGGSTSSTPPSGT | 225 | 297 | 926 | 205 | 434 | 238 | 198 | 311 | 136 | 176 | 129
TGEAPSQPGASS | 10800 | 38800 | 20100 | 86.5 | 111 | 2700 | 216 | 117 | 117 | 160 | 114
SQPGASSGEAEA | 237 | 133 | 8220 | 111 | 93.2 | 90.6 | 137 | 103 | 102 | 100 | 63.9
KTAAGEAPSPSGASS | 162 | 258 | 821 | 204 | 3180 | 4110 | 219 | 189 | 120 | 78.3 | 211
PGASSGEA | 647 | 157 | 7590 | 150 | 113 | 103 | 135 | 134 | 106 | 88.9 | 98.2
SGTENKPAT | 39800 | 27200 | 37400 | 398 | 948 | 8570 | 1980 | 1390 | 197 | 401 | 334
KKTAAGGTPSPSGAS | 263 | 218 | 326 | 4250 | 316 | 1790 | 215 | 111 | 147 | 84.2 | 238
GTENKPATGEA | 37900 | 30200 | 34800 | 1030 | 1950 | 21700 | 539 | 1350 | 132 | 430 | 367
GASSGEAEAS | 95.9 | 121 | 1440 | 119 | 131 | 100 | 214 | 152 | 97.7 | 74.6 | 171
EAPSQPGASSGEAEA | 4470 | 9330 | 7660 | 103 | 99.6 | 121 | 197 | 97 | 97.1 | 84.5 | 70.8
STSSTPPS | 208 | 260 | 307 | 505 | 145 | 137 | 232 | 184 | 111 | 216 | 118
PSQPGASSGEAEA | 303 | 193 | 8580 | 110 | 174 | 126 | 184 | 118 | 106 | 111 | 99.4
PSGTDKKTAAGEAPS | 4570 | 1290 | 6700 | 4120 | 1500 | 6760 | 593 | 666 | 2040 | 323 | 286
GTENKPATGEAP | 46400 | 40900 | 44000 | 1740 | 4170 | 33900 | 1570 | 1510 | 183 | 264 | 218
PPSGTENK | 52400 | 25600 | 51700 | 576 | 9840 | 22600 | 2700 | 633 | 674 | 350 | 734
GTENKPATGEAPS | 46800 | 49700 | 49700 | 1210 | 1780 | 41800 | 1020 | 1610 | 164 | 231 | 162
LSACTTANGGSTSST | 166 | 162 | 291 | 226 | 190 | 204 | 142 | 175 | 218 | 182 | 113
STISTPPSGTEKKAA | 29800 | 13300 | 36800 | 762 | 11700 | 6440 | 5370 | 495 | 312 | 154 | 976
KPATGEAPS | 46900 | 32100 | 46400 | 217 | 207 | 41300 | 875 | 916 | 143 | 189 | 147
KKTAAGEAPSPSGAS | 181 | 214 | 476 | 297 | 227 | 3540 | 253 | 157 | 365 | 71.4 | 205
